Reference: PMC6919601, “Identification of Plasmodium dipeptidyl aminopeptidase allosteric inhibitors by high throughput screening” (PLoS ONE, 2019)
In all, about 110,000 compounds went through this assay and about 230 (0.21%) showed an effect of 50% or more. This is one part of the list.

Target: DPAP1 (Plasmodium falciparum, UniProt Q8IIJ9)
Assay: primary screen, percent inhibition; read by cleavage of a fluorogenic dipeptide substrate; higher = more effect of the substance
Design: species or system P. falciparum D10 trophozoite lysates; single well
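Also: 30 min substrate incubation versus DMSO and 10 µM JCP410 controls.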

Sequence of DPAP1 (Q8IIJ9 whole entry, looked up): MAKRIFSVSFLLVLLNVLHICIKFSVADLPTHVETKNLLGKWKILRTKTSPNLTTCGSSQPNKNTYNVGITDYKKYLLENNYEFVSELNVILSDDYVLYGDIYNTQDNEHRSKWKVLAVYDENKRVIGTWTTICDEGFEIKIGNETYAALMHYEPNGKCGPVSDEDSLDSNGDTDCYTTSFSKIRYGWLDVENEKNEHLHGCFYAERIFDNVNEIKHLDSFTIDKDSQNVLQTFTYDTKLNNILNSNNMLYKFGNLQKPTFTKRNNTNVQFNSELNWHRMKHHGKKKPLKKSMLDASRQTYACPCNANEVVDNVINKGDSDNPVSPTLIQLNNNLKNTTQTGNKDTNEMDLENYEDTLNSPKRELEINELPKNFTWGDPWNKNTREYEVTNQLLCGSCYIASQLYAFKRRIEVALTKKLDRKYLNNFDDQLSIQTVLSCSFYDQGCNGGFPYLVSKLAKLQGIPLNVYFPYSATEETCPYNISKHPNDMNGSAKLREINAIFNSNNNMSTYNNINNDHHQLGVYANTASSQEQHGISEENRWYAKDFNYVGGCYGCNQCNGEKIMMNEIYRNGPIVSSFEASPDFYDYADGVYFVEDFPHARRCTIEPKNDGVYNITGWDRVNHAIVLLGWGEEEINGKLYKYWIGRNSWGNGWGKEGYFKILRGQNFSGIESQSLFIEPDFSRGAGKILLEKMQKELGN

Row | SMILES | % Inhibition @ 10 uM [%]
1 | COCc1cc(C)nc(SCc2ccccc2Cl)c1C#N | -2.68
2 | O=C1C(c2c[nH]c3ccccc23)CC(c2ccccc2)=NN1c1ccccc1 (stereo not shown) | 1.54
3 | O=C(Nc1ccccc1)N1CCCCC1 | -5.57
4 | CCn1c(C)c(C)c2cc(C(=O)NCCC3=CCCCC3)ccc21 | -0.127
5 | CCC1CCc2c(sc(NC(=O)C(C)C)c2C#N)C1 (stereo not shown) | 0.385
6 | O=C(/C=C/c1cccs1)NC(=S)N1CCOCC1 | 4.44
7 | CCn1cc(C2=NOC(C(=O)NCCc3ccccc3)C2)c(C)n1 (stereo not shown) | -3.08
8 | COc1ccccc1C1CC(=O)NC(SCc2ccccc2Cl)=C1C#N (stereo not shown) | 2.03
9 | Cc1c(C(=O)Nc2ccccc2F)cccc1[N+](=O)[O-] | 0.827
10 | Cc1ccc2c(c1)c1c3n2CCN(C(=O)c2ccccc2)C3CCC1 (stereo not shown) | -4.87
11 | O=C(Cn1cc2c(n1)CCCC2)N1CCC(Cc2ccccc2)CC1 | 4.95
12 | O=C(CCCCCN1C(=O)c2ccccc2C1=O)NCc1ccccn1 | -6.08
13 | CCOc1ccc(-c2csc3ncn(CC(=O)Nc4cc(C)ccc4C)c(=O)c23)cc1 | -0.478
14 | N#Cc1ccc(-c2ccc3c(c2)OCO3)nc1SCC(=O)Nc1cccc(F)c1 | -0.68
15 | Oc1nc(Cc2ccccc2)nc2sc3c(c12)CCCC3 | 5.04
16 | CCN(CC)CCN1C(=O)C(O)=C(C(=O)c2ccc(Cl)cc2)C1c1ccc(C)o1 (stereo not shown) | -3.85
17 | COc1ccc2[nH]cc(CCNS(=O)(=O)c3ccc(-n4cnnn4)c(OC)c3)c2c1 | -2.4
18 | Cc1ccc(C)c(N(CC(=O)Nc2ccc(C(C)C)cc2)S(C)(=O)=O)c1 | -2.83
19 | CCOc1ccc(/C=C2\SC(=O)N(CC(=O)Nc3ccc(C)cc3)C2=O)cc1OC | 4.49
20 | CC(CNc1nc2ccc(C(=O)c3ccccc3)cc2n2cnnc12)c1ccccc1 (stereo not shown) | 3.42
21 | COc1ccc(OC(C)C)c(C2C(C#N)=C(N)Oc3c2oc(CO)cc3=O)c1 (stereo not shown) | -5.36
22 | Cn1c(=O)[nH]c(=O)c2c1nc(CN(Cc1ccccc1)Cc1ccccc1)n2CCN1CCOCC1 | 3.59
23 | O=[N+]([O-])c1ccc(-c2cc(O)n(-c3ccccc3Cl)n2)cc1 | -4.3
24 | CC(OC(=O)c1cccnc1SCc1cc(=O)n2ccccc2n1)c1ccccn1 (stereo not shown) | 2.05
25 | O=C(Nc1ccc2c(c1)C(=O)NC2=O)c1ccco1 | 1.34

Row | SMILES | % Inhibition @ 10 uM [%]
26 | COc1ccc(NC(=O)C(N)=O)cc1Cl | 4.38
27 | CCOC(=O)c1[nH]c2ccccc2c1NC(=O)c1cc(OC)c(OC)c(OC)c1 | 4.14
28 | Cc1ccc(C2=CC(c3ccccc3F)n3nnnc3N2)cc1 (stereo not shown) | 0.0842
29 | CC(=O)/N=C(\N)Nc1nc(C)c2cc(C)c(C)cc2n1 | 2.03
30 | COc1ccc(/C=N/OCc2nc3c4c5c(sc4ncn3n2)CCCC5)cc1 | 1.26
31 | Cc1ccc(NC(=O)CS(=O)(=O)c2ccc3ccccc3c2)cc1 | -4.67
32 | COc1ccc(CCNC(=O)c2cc(C3CC3)on2)cc1OC | -4.43
33 | O=C(c1ccc(S(=O)(=O)N2CCCCCC2)cc1)N1CCN(c2ccccc2)CC1 | 3.1
34 | C=CCNc1ncnc2c1cnn2-c1cccc(C)c1 | 7.92
35 | CCCOc1ccc2nc(NC(=O)OC)sc2c1 | 2.79
36 | CCOC(=O)c1c(NC(=O)CN2CCCCC2)sc2c1CCCCC2 | 14.5
37 | C[C@@H](NC(=O)CN1C(=O)c2ccccc2S1(=O)=O)c1ccccc1 | 7.17
38 | CC(=O)C1=C(C)NC(c2cccc([N+](=O)[O-])c2)NC1c1cccc([N+](=O)[O-])c1 (stereo not shown) | -0.0217
39 | Cc1ccccc1/C=C\C(=O)NCC(=O)O | -0.971
40 | Cc1nc(C)c(C(=O)NC(C)c2ccccc2)s1 (stereo not shown) | 4
41 | CC(C)C[C@H](NC(=O)N[C@@H](C)c1ccccc1)C(=O)NCC#N | -4.72
42 | CCOC(=O)c1c(C)n(C)c2ccc(OCC(O)CN3CCN(Cc4ccccc4)CC3)cc12 (stereo not shown) | 2.1
43 | COc1cccc(OC)c1C(=O)Nc1ccc(C)cc1C | -3.04
44 | COc1ccc(N(CC(=O)Nc2ccccc2Cl)S(=O)(=O)c2ccc(NC(C)=O)cc2)cc1 | 5.25
45 | COc1ccc2c(CNCCc3ccccc3Cl)c(C(=O)O)n(Cc3cccc(F)c3)c2c1 | 2.11
46 | COc1ccc(N(CC(=O)Nc2ccc(C)cc2C)S(C)(=O)=O)cc1 | 0.00477
47 | CCOC(=O)CN1CCN(c2ccc(Cl)cc2)CC1 | -6.47
48 | Cc1c(C)n(Cc2ccc(F)cc2)c2ccc(C(=O)NCCCN3CCOCC3)cc12 | -1.92
49 | O=C(Nc1cccc2nsnc12)c1ccc(Cl)cc1Cl | -0.0619
50 | N#CC1=C(N)Oc2c(ccc3ccccc23)C1c1ccc(Cl)cc1Cl (stereo not shown) | -2.42

Row | SMILES | % Inhibition @ 10 uM [%]
51 | Cc1ccsc1CN1CCN(c2ccc(F)cc2)CC1 | -5.68
52 | Cc1cc2oc(=O)cc(C)c2c2occ(C(C)(C)C)c12 | 2.21
53 | CCC(C#CC(O)(c1ccccc1)c1ccccc1)(CC)N(C)C | -2.15
54 | N#CC1=C(N)Oc2nc(-c3ccccc3)[nH]c2C1c1ccc(Cl)c(Cl)c1 (stereo not shown) | 12.5
55 | Cc1cccc(N2CN=c3s/c(=C\c4ccccn4)c(=O)n3C2)c1 | -1.6
56 | Nc1ncc(Cc2ccc(Cl)cc2Cl)s1 | -1.6
57 | CCN1CCCC1CNC(=O)c1cccc(Cl)c1 (stereo not shown) | 4.88
58 | COc1ccc(C2=C(C)C(N3CCN(C(=O)c4ccco4)CC3)=NS2(=O)=O)cc1 | -1.08
59 | O=C1CC2Sc3ccccc3N=C2N1CN1C(=O)c2ccccc2C1=O (stereo not shown) | 0.0265
60 | CC(CCc1ccccc1)Nc1ncnc2onc(-c3ccc(F)cc3)c12 (stereo not shown) | 3.26
61 | COc1ccc(C(=O)Nc2ccccc2C(N)=O)cc1S(=O)(=O)N1CCCC1 | 3.81
62 | COc1cc(/C=C2\SC(N3CCCC(C)C3)=NC2=O)ccc1O (stereo not shown) | 7.73
63 | Cc1cc(Cl)ccc1NC(=O)CCN1C(=O)c2ccccc2C1=O | -5.34
64 | O=C(O)c1cc([N+](=O)[O-])ccc1C(=O)Nc1cccc(O)c1 | -8.11
65 | Oc1nc2ccc(Cl)cc2c(O)c1-c1ccccc1 | -1.07
66 | COc1ccc(OC)c(S(=O)(=O)N2CCCC2C(=O)N2CCc3ccccc3C2)c1 (stereo not shown) | -4.11
67 | CSc1ncnc2c1oc1nc(-c3ccccc3)cc(C)c12 | 1.31
68 | COc1ccccc1CNc1sc(S(C)(=O)=O)nc1S(=O)(=O)c1ccc(Cl)cc1 | -2.25
69 | CC(NC(=O)[C@@H](c1ccccc1)N1Cc2ccccc2C1=O)c1ccc2c(c1)OCCO2 (stereo partly shown) | -0.465
70 | O=C(CC12CC3CC(CC(C3)C1)C2)OCCNC(=O)c1cccnc1 | -11.4
71 | O=C(NC(=O)C1CCNCC1)c1cc2c(s1)CSC2 | 0.44
72 | COc1ccc(CCNC(=O)Cn2cnc3c(nnn3Cc3ccccc3F)c2=O)cc1OC | -5.79
73 | COC(=O)c1ccc(CSc2nnc(CNC(=O)c3cccs3)o2)o1 | -1.58
74 | COC(=O)c1ccc(Oc2nc(N3CCCCC3)nc(N3CCCCC3)n2)cc1 | 5.2
75 | COc1ccc(C2CC(c3ccccc3)=NN2S(=O)(=O)c2ccccc2)c(OC)c1 (stereo not shown) | 4.76

Row | SMILES | % Inhibition @ 10 uM [%]
76 | CCOC(=O)c1c(C)n(-c2ccc(C)cc2)c2ccc(OCC(O)CNCC3CCCO3)cc12 (stereo not shown) | 0.275
77 | O=C(Cn1ccc2ccccc2c1=O)NCCC(=O)N1CCN(C2CCCCC2)CC1 | 1.5
78 | CN1C(=O)C(=Cc2ccccc2Cl)C(=O)N(C)C1=O | -2.32
79 | COCc1cc(C)nc2sc(C(O)c3ccccc3)c(NC(=O)c3ccccc3)c12 (stereo not shown) | -3.34
80 | N#Cc1cc(Oc2ccc(Br)cc2)nc2ccccc12 | -3.75
81 | CCCCNC(=O)C1CCN(S(=O)(=O)N(CC)CC)CC1 | -2.26
82 | CCn1c(C)c(C)c2cc(C(=O)N3CCCC3)ccc21 | -0.48
83 | CCOc1cc(/C=C2/SC(=O)N(C(C)C)C2=O)ccc1O | -5.14
84 | COc1ccc(C(=O)/C=C/c2ccccc2Br)c(OC)c1 | 8.76
85 | Cc1cccc(C)c1NC(=O)C1CCCN1S(=O)(=O)c1ccc(Cl)cc1 (stereo not shown) | 5.07
86 | CC(C)c1ccc(/C=C2\SC(N3CCOCC3)=NC2=O)cc1 | 0.755
87 | CSc1nc(-c2ccccc2)c2ccccc2n1 | 7.25
88 | CC(CCc1ccccc1)N1CCOCC1 (stereo not shown) | -3.6
89 | CCCCN(CCCC)S(=O)(=O)c1ccc2nc(O)ccc2c1 | -2.67
90 | Cc1ccc(Oc2nc3c(C)cccn3c(=O)c2/C=C(\C#N)C(=O)NC2CCS(=O)(=O)C2)cc1 (stereo not shown) | 2
91 | Cc1c(C(=O)NCc2ccccc2Cl)oc2ccc(S(=O)(=O)N3CCOCC3)cc12 | -6.5
92 | CCc1nn(CCCC(=O)NC2CCN(Cc3ccccc3)CC2)c(=O)c2cc3occc3n12 | -3.79
93 | Cc1ccc(-c2nnn3c2nc(NCc2ccccc2)c2ccccc23)cc1 | 5.09
94 | COc1cc(CC(C)N2CCSCC2)ccc1O (stereo not shown) | 1.9
95 | CCOc1ccc(-c2cn3nc(CC)sc3n2)cc1 | -1.16
96 | CC(CNC(=O)Cn1ncc2c(Cl)cccc21)c1ccccc1 (stereo not shown) | -1.11
97 | C=Cc1ccc(Cn2c(C(=O)O)c(CNCc3ccccc3Br)c3ccccc32)cc1 | 5.43
98 | C1CCCC(NCCCN2CCOCC2)CCC1 | -1.81
99 | COc1cccc(/C=N\n2c(C)nnc2C)c1O | -2.13
100 | CC[C@H](NC(=O)[C@H](CC1CCCCC1)OC(=O)N1CCOCC1)C(=O)c1nc2ccccc2o1 | -0.207
